Results published in PubChem BioAssay AID1347430 (National Center for Advancing Translational Sciences (NCATS), 2020).
Among all 91,000 compounds or so, about 130 (0.14%) were called active. Inconclusive means that the source gave no clear call. Such entries were picked first, then a sample of the others. Calls come from the whole dose curve; as a rule, active = well fitted inhibition curve with a large enough effect; inconclusive = small, poorly fitted or top-dose-only effect; inactive = flat fitted curve, though single readings scatter. Where the call is inconclusive, the potency comes from a doubtful curve fit.

test system: Uracil-DNA glycosylase; test: Primary qHTS assay for inhibitors of Activation Induced Cytidine Deaminase (AID): UDG Counterscreen signal; details: FRET deamination/UDG coupled assay, UDG read, 4 h; series mostly up to 115 µM; note: nearly all actives have a fitted effect of over 65% in size
Potency is the fitted concentration of half-maximal effect; tags give direction and shape of the fitted curve.

| Structure (SMILES) | Potency |
| --- | --- |
| COc1ccc(-c2noc(CSc3nnc(Cc4ccccc4)n3-c3ccc(F)cc3)n2)cc1 | inconclusive: 79.4 µM [inhibitor, partial curve, poor fit] |
| Cc1cccc(-c2nc(C#N)c(N3CCN(Cc4ccccc4)CC3)o2)c1 | inactive |
| COc1cc(C2c3c(-c4c(C)cc(C)cc4O)n[nH]c3C(=O)N2Cc2ccco2)cc(OC)c1OC (stereo not given) | inconclusive: 44.7 µM [inhibitor, full curve, poor fit] |
| COc1ccc2c(CNCCc3ccco3)c(C(=O)O)n(Cc3ccc(C)cc3)c2c1 | inactive |
| COc1ccc(OC)c(-c2cc(C(=O)Nc3c(C)nn(Cc4ccc(C)cc4)c3C)no2)c1 | inconclusive: 89.1 µM [inhibitor, single point] |
| Cc1ccc(-n2nc(C(=O)N(C)c3ccc(C)c(C)c3)c3c4ccccc4n(C)c3c2=O)cc1 | inconclusive: 50.1 µM [inhibitor, partial curve, poor fit] |
| Cc1ccc(S(=O)(=O)N(CC(=O)Nc2cccnc2)c2cc(Cl)ccc2C)cc1 | inconclusive: 89.1 µM [inhibitor, single point] |
| CC(=O)N1CCN(c2ncnc3c2c(-c2ccccc2)cn3-c2cccc(C)c2)CC1 | active: 79.4 µM |
| CCCCN1C(=O)c2[nH]nc(-c3ccccc3O)c2C1c1ccc(OCc2ccccc2)c(OC)c1 (stereo not given) | inconclusive: 100 µM [inhibitor, single point] |
| COc1cc(NC(=O)NCCc2c(C)nn(C)c2C)cc(OC)c1OC | inconclusive: 89.1 µM [inhibitor, single point] |
| Cc1ccc(-c2cnc3ccccc3n2)c(C)c1 | inactive |
| CCc1ccccc1Nc1sc(C(=O)c2ccccc2)c(N)c1S(=O)(=O)c1ccccc1 | inconclusive: 89.1 µM [inhibitor, single point] |
| COC(=O)c1scc(-c2ccc(C)cc2)c1S(=O)(=O)N1CCN(c2cccc(Cl)c2)CC1 | inconclusive: 79.4 µM [inhibitor, single point] |
| O=C(COC(=O)c1ccc2ccccc2n1)NC1CC1 | inconclusive: 79.4 µM [inhibitor, single point] |
| O=C(COc1ccc(Cl)cc1)OCc1cc(=O)n2nc(C3CCCCC3)sc2n1 | inconclusive: 89.1 µM [inhibitor, single point] |
| CC(=O)C1=CC[C@H]2[C@@H]3CC[C@H]4C[C@@H](O)CC[C@]4(C)[C@H]3CC[C@]12C | inactive |
| CCOCCn1ccc2c(OCC(=O)Nc3cc(C)cc(C)c3)cccc2c1=O | inconclusive: 89.1 µM [inhibitor, single point] |
| COc1cc2c(cc1OC)C(COc1cc(C)cc(C)c1)N(C(=O)C(C)(C)C)CC2 (stereo not given) | inconclusive: 70.8 µM [inhibitor, partial curve, poor fit] |
| Cc1cccc(N2CCN(CCCNc3ncnc4onc(-c5ccc(F)cc5)c34)CC2C)c1 (stereo not given) | inconclusive: 56.2 µM [inhibitor, partial curve, poor fit] |
| Cc1ccc2c(CN3CCCCCC3)cc(=O)oc2c1 | inactive |

| Structure (SMILES) | Potency |
| --- | --- |
| COc1cccc2cc(C(=O)Nc3ccc(C)cc3)c(=O)oc12 | inconclusive: 100 µM [inhibitor, single point] |
| CN(Cc1ccccc1)C(=O)c1cccc(-c2cnc3ccccc3c2)c1 | inconclusive: 89.1 µM [inhibitor, single point] |
| Nc1ccccc1C(=O)NCC(F)(F)F | inactive |
| Cc1ccc(CNC(=O)c2ccc(=O)[nH]c2)s1 | inactive |
| COc1ccc(S(=O)(=O)Nc2cccc(-c3ccc(N4CCCC4)nn3)c2)cc1F | inconclusive: 100 µM [inhibitor, single point] |
| CCC(C(=O)NCCc1ccc(OC)c(OC)c1OC)n1nc(C)c2sc3ccccc3c2c1=O (stereo not given) | inconclusive: 89.1 µM [inhibitor, single point] |
| CC(C)c1ccc(C(=O)NCCCNC(=O)c2cc3ccccc3[nH]2)cc1 | inconclusive: 89.1 µM [inhibitor, single point] |
| CCOc1ccccc1C(=O)NCc1ccc2c(c1)CCN2C(=O)c1ccc(F)cc1 | inconclusive: 89.1 µM [inhibitor, single point] |
| COc1ccc2[nH]c(C)c(C(=O)CN3CCC(Cc4ccccc4)CC3)c2c1 | active: 89.1 µM |
| COc1cc2nc(NCCc3cccc(C)c3)n3nc(-c4ccccc4)nc3c2cc1OC | inconclusive: 100 µM [inhibitor, single point] |
| CCOc1ccccc1C(=O)Nc1cccc(-c2nc3ccccc3s2)c1 | inconclusive: 89.1 µM [inhibitor, single point] |
| COc1ccc(C2C(C(=O)Nc3ccccc3)=C(C)Nc3nc(-c4ccc(Cl)cc4)nn32)cc1 (stereo not given) | inconclusive: 89.1 µM [inhibitor, single point] |
| CN(C)c1ccc(-c2nc(-c3ccccn3)no2)cc1[N+](=O)[O-] | inconclusive: 100 µM [inhibitor, single point] |
| COc1ccc(-n2c(SCc3nc(-c4ccc(C)cc4)no3)nnc2-c2ccncc2)cc1 | inconclusive: 79.4 µM [inhibitor, partial curve, poor fit] |
| COc1ccc(CNC(=O)c2cc3ccccn3n2)c(OC)c1 | inconclusive: 100 µM [inhibitor, single point] |
| CC(NC(=O)c1nccnc1N)c1ccccc1 (stereo not given) | inactive |
| Cc1ccc(C2CCN(C(=O)c3cnn(-c4ccccc4Cl)c3C3CCN(C(=O)OC(C)(C)C)CC3)C2)cc1 (stereo not given) | inconclusive: 79.4 µM [inhibitor, partial curve, poor fit] |
| O=C(C1CC1)N(Cc1ccc2c(c1)CN(S(=O)(=O)c1ccc(F)cc1)CCO2)c1ccccc1 | inconclusive: 79.4 µM [inhibitor, single point] |
| CCOC(=O)c1c(NC(=O)CCCOc2ccc(C(C)(C)C)cc2)sc2c1CCC2 | inconclusive: 79.4 µM [inhibitor, partial curve, poor fit] |
| CC(=O)c1cccc(NC(=O)c2cnn(-c3cccc(C)c3)c2-n2cccc2)c1 | inconclusive: 89.1 µM [inhibitor, single point] |
